Test: label from the status in PepcDB records

MGCIKSKENKSPAIKYTPENLTEPVSPSASHYGVEHATVAPTSSTKGASVNFNSLSMTPFGGSSGVTPFGGASSSFSVVSSSYPTGLTGGVTIFVALYDYEARTTEDLSFKKGERFQIINNTEGDWWEARSIATGKSGYIPSNYVVPADSIQAEEWYFGKMGRKDAERLLLNPGNQRGIFLVRESETTKGAYSLSIRDWDEVRGDNVKHYKIRKLDNGGYYITTRAQFDTLQKLVKHYTEHADGLCHKLTTVCPTVKPQTQGLAKDAWEIPRESLRLEVKLGQGCFGEVWMGTWNGTTKVAIKTLKPGTMMPEAFLQEAQIMKKLRHDKLVPLYAVVSEEPIYIVTEFMSKGSLLDFLKEGDGKYLKLPQLVDMAAQIADGMAYIERMNYIHRDLRAANILVGENLICKIADFGLVRLIEDNEYTARQGAKFPIKWTAPEAALYGRFTIKSDVWSFGILQTELVTKGRVPYPGMVNREVLEQVERGYRMPCPQGCPESLHELMNLCWKKDPDERPTFEYIQSFLEDYFTATEPQYQPGENL
protein production: not failed

MKMKTKIFRVKGKFLMGDKLQPFTKELNAIREEEIYERLYSEFGSKHRVPRSKVKIEEIEEISPEEVQDPVVKALVQRLEHHHHHH
protein production: not failed
